# Test results as given in PMC6919601, “Identification of Plasmodium dipeptidyl aminopeptidase allosteric inhibitors by high throughput screening” (PLoS ONE, 2019).
# Where “and” joins values, the source holds several entries; their conditions need not be identical. Equal entries are not always repeated. Screen size: about 110,000 compounds; about 230 (0.21%) showed an effect of 50% or more. Some of the results follow.
# Molecular target: DPAP1 (Plasmodium falciparum, UniProt Q8IIJ9)
# Assay: primary screen, percent inhibition; read by cleavage of a fluorogenic dipeptide substrate; higher = more effect of the substance
# Set-up: species or system P. falciparum D10 trophozoite lysates; single well
# 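Further: 30 min substrate incubation versus DMSO and 10 µM JCP410 controls.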
# Sequence of DPAP1 (Q8IIJ9 whole entry, looked up): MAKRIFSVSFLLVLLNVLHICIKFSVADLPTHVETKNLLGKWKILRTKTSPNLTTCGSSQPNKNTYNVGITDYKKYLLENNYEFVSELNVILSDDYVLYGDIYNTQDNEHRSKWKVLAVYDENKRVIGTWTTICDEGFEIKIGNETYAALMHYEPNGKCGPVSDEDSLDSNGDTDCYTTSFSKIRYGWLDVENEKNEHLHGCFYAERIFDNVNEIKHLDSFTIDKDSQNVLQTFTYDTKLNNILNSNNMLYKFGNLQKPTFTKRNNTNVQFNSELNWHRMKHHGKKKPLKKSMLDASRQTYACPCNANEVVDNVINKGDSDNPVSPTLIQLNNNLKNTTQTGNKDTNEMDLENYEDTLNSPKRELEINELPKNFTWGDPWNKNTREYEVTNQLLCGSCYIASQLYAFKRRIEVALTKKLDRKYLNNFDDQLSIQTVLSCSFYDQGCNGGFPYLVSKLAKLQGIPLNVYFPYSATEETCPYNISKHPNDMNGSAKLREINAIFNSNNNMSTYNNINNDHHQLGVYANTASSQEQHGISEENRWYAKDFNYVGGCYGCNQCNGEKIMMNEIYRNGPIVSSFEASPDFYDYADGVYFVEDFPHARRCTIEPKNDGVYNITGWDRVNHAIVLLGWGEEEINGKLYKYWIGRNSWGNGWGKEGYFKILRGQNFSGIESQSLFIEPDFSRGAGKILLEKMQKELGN
row,Structure (SMILES),% Inhibition @ 10 uM
1,CCO/C(O)=C1/C(C)=NC(=S)NC1c1ccc(Cl)cc1 (stereo not shown),1.08%
2,O=C(COc1ccc2ccccc2c1)N1CCN(C(=O)c2cccnc2)CC1,-5.26%
3,O=C(CCc1ccccc1)NC1(C(F)(F)F)NC(=O)N(Cc2ccco2)C1=O (stereo not shown),0.032%
4,Fc1ccccc1CCNC1CCN(CCc2ccccc2)CC1,3.48%
5,CN1c2ccccc2N(C)C1c1ccccc1O,-3.69%
6,CC(=O)NC1=NC(=O)/C(=C\c2ccccc2OCc2ccc(C(=O)O)cc2)S1,-5.51%
7,CCCCN(CC)CCCNC(=O)c1cc2ccc3cccnc3c2[nH]1,1.75%
8,CN1C=CC=C/C1=C/c1c2ccccc2nc2ccccc12,-2.45%
9,Cc1ccc(Cl)cc1NC(=O)CCN1C(=O)c2ccccc2C1=O,-1.64%
10,Nc1c(C(=O)Nc2ccccc2F)sc2nc3c(cc12)CCCCC3,13.3%
11,CCOC(=O)N1CCN(S(=O)(=O)c2c(C)nc3sccn3c2=O)CC1,-2.01%
12,Cc1ccc(CS(=O)Cc2ccc(C(=O)N3CCC4(CC3)OCCO4)o2)cc1 (stereo not shown),-5.43%
13,Cc1cc(C)n(-c2ccc3nncn3n2)n1,-3.35%
14,O=C(c1cccc(F)c1)N1CCOCC1,-5.68%
15,COc1ccc(S(=O)(=O)Nc2nc3ccccc3s2)cc1OC,2.13% and -6.27%
16,O=C(CSc1cn(CC(=O)N2CCCCC2)c2ccccc12)NCc1ccco1,-3.13%
17,COC(=O)c1cc2ccsc2n1Cc1nc(-c2ccc(C)cc2)oc1C,-3.17%
18,O=C(Cn1nc(-c2ccccc2)ccc1=O)NCCN1CCc2ccccc2C1,0.514%
19,COc1ccccc1-c1nnc(NC(=O)c2ccc(S(=O)(=O)N3CCc4ccccc4C3)cc2)o1,-0.363%
20,Cc1ccc(S(=O)(=O)NCC(=O)N2CCN(C(c3ccccc3)c3ccccc3)CC2)cc1,-9.02%
21,Cc1ccccc1OCC(=O)N(Cc1cccc(F)c1)C1CCS(=O)(=O)C1 (stereo not shown),5.17%
22,O=C(Nc1nnc(S(=O)(=O)N2CCOCC2)s1)c1ccc(Cl)cc1,1.68%
23,O=C(NCc1ccc2[nH]c3c(c2c1)CCCC3)c1ccccc1,-0.138%
24,Cc1ccc(S(=O)(=O)N(C)c2c(C)ccc(S(=O)(=O)n3nc(C)cc3C)c2C)cc1,-5.29%
25,COC(=O)c1c(C)oc2cc(Br)c(OCc3ccccc3C)cc12,-2.15%

row,Structure (SMILES),% Inhibition @ 10 uM
1,CC(=O)Nc1ccc(S(=O)(=O)Nc2cc(C)ccn2)cc1,-1.42%
2,Cc1ccccc1C1C(C#N)=C(N)Oc2cc(N)ccc21 (stereo not shown),6.08%
3,COc1ccc(C2Oc3ccc(Br)cc3C3CC(c4ccc(C)o4)=NN32)cc1OC (stereo not shown),0.628%
4,CCN1CCN(Cc2ccc(OC)cc2)CC1,0.847%
5,CN1C(=O)C(=CNc2ccc(O)cc2)C(=O)N(C)C1=O,-6.69%
6,NC(=O)c1c(NC(=O)Nc2cccc(Cl)c2)sc2c1CCCCC2,3.53%
7,CCOC(=O)c1sc(N2C(=O)c3oc4cc(C)c(C)cc4c(=O)c3C2c2ccc(O)cc2)nc1C (stereo not shown),-3.36%
8,CCOC(=O)N1CCC(NC(=O)Cn2nc(CC)n3c(cc4sccc43)c2=O)CC1,1.8%
9,COc1ccc(OC)c(C2C(=O)N(C3CCC(C)CC3)CC(=O)N2Cc2ccc(C)cc2)c1 (stereo not shown),-0.519%
10,C=CCNC(=O)C1CC=CCC1C(=O)Nc1ccccc1 (stereo not shown),-3.77%
11,CCN(Cc1ccccc1)C(=O)c1ccc(CNS(=O)(=O)c2ccc(C)cc2)cc1,-0.971%
12,Cn1nccc1C(=O)Nc1sc2c(c1C#N)CCC2,1.57%
13,CCOc1ccccc1CNc1ncnc2c1nc1n2CCCCC1,-6.91%
14,NC(=O)CSc1nc2nccnc2c(=O)n1Cc1ccccc1,-0.0652%
15,O=C(CCCC(=O)NCc1ccco1)NCc1ccoc1,3.34%
16,CC(C)CC(=O)N1CCN(C2CCC(C)CC2)CC1 (stereo not shown),-0.274%
17,CC(=O)N1CCN(c2ncnc3[nH]cnc23)CC1,-1.47%
18,CC(C)Cc1ccc(C(C)C2=NCCN2)cc1 (stereo not shown),-2.99%
19,O=C(Nc1ccc(N2CCOCC2)cc1)c1ccccc1F,-2.02%
20,CCN1CCN(CC(O)COc2ccc(C(C)(C)C)cc2)CC1 (stereo not shown),-3.12%
21,Cc1cc(C(=O)N2CCN(C(=O)c3ccco3)CC2)c2c(C)nn(-c3ccccc3Cl)c2n1,3.75%
22,CN(C)CCN(Cc1ccco1)C(=O)c1cc2c(Cl)nc3ccccc3c2s1,0.809%
23,COc1ccc(OC)c(C(=O)c2ccccn2)c1,2.48%
24,CC1=C(c2ccc(C(C)C)cc2)S(=O)(=O)N=C1N1CCN(C(=O)c2ccco2)CC1,-1.08%
